Hit rate of the full screen: of about 150,000 compounds, about 540 (0.36%) showed an effect of 50% or more. Some of the results follow.

This experiment relates to Plasmodium falciparum. The experiment is described as follows: Primary screen in NF54 nanoGlo assay, in single point, at 2uM, 72h; a lower Z score goes with more inhibition. The class given is functional, Erythrocyte. The conditions noted are these: timepoint 72 hour.
Turning to `COc1ccc(-n2cc3c(c2-c2ccccc2)c(=O)n(-c2ccccc2)n3C)c(OC)c1`, the “% Inhibition” value is given as -5% and the Z score is 0.84.
For `CC#CCN(CCc1cccs1)S(=O)(=O)CC` the same measures were -13% and 1.46.
For the molecule `FC(F)(F)[C@H]1CCCN(c2nc(-c3cccnc3)nc3ccccc23)C1`, the “% Inhibition” value is 8% and the Z score was -0.64.
For `CCc1nc(-c2ccc(-c3noc(-c4ccc(Br)o4)n3)cc2)cs1` the same measures were -15% and 1.51.
The corresponding values for `CCOC(=O)NC[C@H](OC)c1ccsc1` are -12% and 1.51.
For `CC1=COCC(=S)C(N2CCCC2)=N1`, the “% Inhibition” value is -16% and the Z score is on record as 3.11.
In the case of `Cc1cc(NCc2nc(C)cc(=O)[nH]2)nc(C2CC2)n1`, the “% Inhibition” value stood at 1% and the Z score is listed as -0.23.
The corresponding values for `CCO[C@H]1[C@H](NC(=O)c2cnccc2C)c2ccccc2C12CCNCC2` are 3% and -0.35.
The corresponding values for `Cn1cccc1[C@@H](O)CCNC(=O)C(C)(C)C` are -8% and 1.21.
The corresponding values for `CC(C)C(C)(C)CS(=O)(=O)NCCc1cn[nH]c1` are -11% and 2.
Consider `O=C(Nc1ccc(N2CCOCC2)cc1)Nc1ccc(F)cc1F`, for which the “% Inhibition” value is given as 36% and the Z score is -4.59.
For the molecule `c1nc(N2CC3CCCCC3C2)c2[nH]cnc2n1` (stereo unspecified), the “% Inhibition” value was determined as 31% and the Z score was -3.9.
For `COc1ccccc1CNC(=O)c1cnn(-c2cccc(F)c2)c1C1CCN(C(=O)OC(C)(C)C)CC1` the same measures were -5% and 0.89.
The corresponding values for `NC(=O)c1cc2c(nc1N1CCC[C@H](c3nccn3CC3CC3)C1)CCC2` are -24% and 2.36.
Consider `Cn1cc(S(=O)(=O)Nc2sc(C3CC3)nc2-c2ccccc2)cn1`, for which the “% Inhibition” value was -10% and the Z score amounted to 1.6.
As for `COc1ccc(-n2cc([C@H](C)NC(=O)CCC(F)(F)F)cn2)cc1`, the “% Inhibition” value was -18% and the Z score was 1.63.
For `C[C@H]1CCc2c(sc(NC(=O)CN3CCNC(=O)C3)c2C#N)C1` the same measures were -41% and 4.76.
The corresponding values for `Cc1ccc2ncc(CN3CCN([C@@H](C)C(=O)NC4CCCC4)CC3)n2c1` are 1% and -0.14.
For `COc1ccc(-c2nc(CCNC(=O)C(F)(F)F)n3ccccc23)cc1` the same measures were -6% and 0.88.
As for `COCCn1c(N)c(C(=O)CN(C)c2cc(C)ccc2C)c(=O)[nH]c1=O`, the “% Inhibition” value is given as -4% and the Z score is 0.48.
The corresponding values for `Cc1cccc(C2C(C(=O)NC3CC3)c3ccccc3C(=O)N2C2CC2)c1` (stereo unspecified) are -12% and 1.11.
In the case of `Clc1c(CN2CC[C@H](N3CCCCC3)C2)[nH]c2ccccc12`, the “% Inhibition” value was 0% and the Z score amounted to 0.08.
For `Cc1cncc(C(=O)NCc2cccnc2Oc2ccc(F)cc2F)c1` the same measures were 2% and -0.37.
The corresponding values for `COCCC(=O)N1CC[C@@H]2OCc3cccc(c3)Oc3cccc(c3)CCC(=O)N(C)CC(=O)N[C@@H]2C1` are -5% and 0.66.
As to `COC(=O)NCC(=O)N1C[C@@H]2CC[C@H]1CN(CCCc1ccccc1)C2`, the “% Inhibition” value was 7% and the Z score is on record as -1.06.
With `O=C(c1c[nH]c(=O)[nH]1)N1CCC(c2nnc3n2CCCCC3)CC1`, the “% Inhibition” value came out at 3% and the Z score was -0.54.
The corresponding values for `CNC(=O)NC[C@H]1COCCN1C(=O)c1ccc(C(F)F)c(F)c1` are -8% and 0.91.
The corresponding values for `CC(C)(C)OC(=O)N[C@H]1CCN(C(=O)c2cc(F)ccc2F)C1` are 2% and -0.17.
As to `Cc1cc(N(C)CCC2CC2)nc([C@H](C)N(C)CCC2CC2)n1`, the “% Inhibition” value is listed as 59% and the Z score was -9.38.
For `CC1CCCC(OCC(=O)NC(C)CCC2CCCO2)C1` (stereo unspecified) the same measures were -5% and 0.43.
Turning to `C=CCCC(=O)N1CCC(N2C(=O)COCC2=O)CC1`, the “% Inhibition” value is recorded as 10% and the Z score is -1.34.
For `CN1CC(=O)N(CCOCC(F)(F)C(F)(F)F)C1=O` the same measures were -12% and 1.77.
For `c1ccc(-c2ccc(-c3n[nH]c4c3CN(CCCn3cnnn3)CC4)cc2)cc1` the same measures were 6% and -1.25.
The corresponding values for `COCCCn1ccc(Nc2ncc(Br)cn2)n1` are 8% and -0.92.
For `C[C@@H](c1cccc(-c2cn(CCn3cccn3)nn2)c1)N(C)C`, the “% Inhibition” value is listed as 1% and the Z score is -0.08.
In the case of `COc1ccc(-c2c(C)noc2NC(C)=O)cc1S(=O)(=O)N(C)c1ccc(C)cc1`, the “% Inhibition” value is listed as -13% and the Z score was 1.9.
The corresponding values for `C[C@@H]1CN(C(=O)c2ccc(F)c(Cl)c2)CC[C@@]1(O)C1CCOCC1` are 2% and -0.38.
In the case of `Cc1ncsc1CCNC(=O)[C@H]1CCN(c2ccc(C(F)(F)F)cn2)C1`, the “% Inhibition” value is reported as -4% and the Z score stood at 0.7.
For `O=C(CC1CCCC1)N1CCCc2cnc(N3CCOCC3)nc21` the same measures were 2% and -0.2.
In the case of `O=C(O)CC1(CC(=O)Nc2cc(N3CCCC3=O)ccc2F)CCCCC1`, the “% Inhibition” value is reported as -4% and the Z score came out at 0.8.
For the molecule `CC[C@H](OC)C(=O)NCCc1cccc(Cl)c1`, the “% Inhibition” value was -2% and the Z score was determined as 0.2.
Turning to `CCOc1ccc(NC(=O)Cn2c(C)cc3nc4n(c(=O)c32)CCCC4)cc1`, the “% Inhibition” value is listed as -3% and the Z score is on record as 0.47.
For `Cc1ccc(-n2nc(C(=O)N3CCOCC3)c(=O)n(Cc3ccccc3)c2=O)cc1` the same measures were -7% and 1.09.
The corresponding values for `C[C@H](NS(=O)(=O)c1ccc2c(c1)CCN2C(=O)N1CCCC1)C(=O)Nc1nccs1` are -12% and 2.01.
For `Cc1[nH]c2ccccc2c1C1CCN(C(=O)Cn2ccccc2=O)CC1` the same measures were -10% and 1.47.
As for `CCOC(=O)N1CCC(NC(=O)c2nnn(-c3cc(Cl)ccc3OC)c2C)CC1`, the “% Inhibition” value is given as 26% and the Z score is -2.9.
For the molecule `CC(C)CC(=O)N1CCC[C@H]1C(=O)N[C@H]1CC[C@H](NC(=O)c2ccccc2)CC1`, the “% Inhibition” value is listed as -4% and the Z score is recorded as 0.59.
`CN(C)C1CCCC(C(=O)NCC2CCCC2)C1` (stereo unspecified): the “% Inhibition” value is given as -10% and the Z score stood at 1.02.
As to `Cc1c(C(=O)NCCS(N)(=O)=O)nnn1-c1cccc2ncccc12`, the “% Inhibition” value was -6% and the Z score is recorded as 0.94.
For `CC(=O)c1cc(-c2nc(-c3cccnn3)no2)c(=O)[nH]c1C` the same measures were -17% and 2.87.
The corresponding values for `Cc1cc(C)nc(O[C@H]2CCCN(C(=O)c3ccccc3C)C2)n1` are -2% and 0.28.
For `C[C@H](NC(=O)c1cncc(O)c1)c1ncnn1C` the same measures were -7% and 0.98.
On to `O=C(c1ccc2[nH]ccc2c1)N1CCC(F)(F)C1`, for which the “% Inhibition” value was -7% and the Z score is given as 0.93.

As usually defined, the % Inhibition is the drop in the measured response relative to a control, in per cent.

The values above are taken from ChEMBL document CHEMBL4888484, “Replenishing the malaria drug discovery pipeline: Screening and hit evaluation of the MMV Hit Generation Library 1 (HGL1) against asexual blood stage Plasmodium falciparum ,using a nano luciferase reporter read-out” (2022).
